The values that follow come from ChEMBL document CHEMBL4888484, “Replenishing the malaria drug discovery pipeline: Screening and hit evaluation of the MMV Hit Generation Library 1 (HGL1) against asexual blood stage Plasmodium falciparum ,using a nano luciferase reporter read-out” (2022).

In general, % Inhibition refers to the drop in the measured response relative to a control, in per cent.

About 540 (0.36%) of roughly 150,000 compounds showed an effect of 50% or more. This is one part of the list.

This assay deals with Plasmodium falciparum. The assay is described as follows: Primary screen in NF54 nanoGlo assay, in single point, at 2uM, 72h; a lower Z score goes with more inhibition. The format is functional, Erythrocyte. The conditions noted are these: timepoint 72 hour.
As to `Cc1ccc2nc(Cc3ccccc3)c(NC(=O)c3ccc(C(F)(F)F)cc3)n2c1`, the “% Inhibition” value is -11% and the Z score is 1.53.
The matching figures for `CCC(=O)N(Cc1c(-c2ccccc2)noc1N1CCCC1)CC1CC1`: 3% and -0.4.
For the compound `CCC1=Nc2ccccc2N=C(NC(=O)CN2CCN(C)CC2)[C@H]1c1ccccc1`, the “% Inhibition” value was -6% and the Z score stood at 0.93.
The matching figures for `CC(C)[C@H](NC(=O)Nc1cc(Cl)ccc1F)C(N)=O`: 43% and -5.74.
The matching figures for `O=C(CN1CCC[C@H](C(=O)NCC(F)(F)F)C1)NC1CCCC1`: -5% and 0.59.
The matching figures for `Cc1c2c(=O)n(-c3nc4ccccc4s3)[nH]c2cc(=O)n1CCc1c[nH]c2ccccc12`: -7% and 0.87.
In the case of `CCCS(=O)(=O)NC(=O)CCCc1ccccc1`, the “% Inhibition” value is 3% and the Z score is -0.39.
`CCCn1cc(-c2cc(-c3ccc(OC)nc3)nc(N)c2C#N)c(C)n1`: the “% Inhibition” value is given as 2% and the Z score is -0.19.
The matching figures for `CN1CCC(NC(=O)c2csc(NC(=O)c3cccc(Cl)c3)n2)CC1`: 8% and -1.14.
The matching figures for `CCCC(=O)NCc1nn(C2CCCC2)c2c1CCCC2`: -14% and 2.74.
As for `CC[C@@]1(C)CCCN(C(=O)c2cc(Cn3cc(C)cn3)on2)CC1`, the “% Inhibition” value is -8% and the Z score stood at 1.09.
`COc1ccc(C(=O)Nc2c(C)nc(Nc3ccc(C)cc3)nc2Nc2ccc(C)cc2)cc1OC`: the “% Inhibition” value is reported as -9% and the Z score is reported as 1.79.
`CCOC(=O)NCC#CCOc1ccccc1C(N)=O`: the “% Inhibition” value came to 40% and the Z score was -6.34.
The matching figures for `CC1(O)CC2CCC(C1)N2C(=O)c1cc(Br)c2c(c1)OCCO2` (centres undefined): 35% and -5.09.
In the case of `COc1cccc(CNC(=O)c2cc(-c3ccccc3)ns2)n1`, the “% Inhibition” value is -7% and the Z score came to 0.96.
On to `COc1ccc(NC(C)=O)cc1NC(=O)NC(C)C(C)CO` (centres undefined), for which the “% Inhibition” value is on record as -7% and the Z score was 1.37.
Turning to `Cn1cc(CNc2ccc3[nH]c(=O)n(C)c3c2)c(C(C)(C)C)n1`, the “% Inhibition” value was -13% and the Z score is 2.58.
The matching figures for `CC1CCN(C(=O)c2cc(S(=O)(=O)N(C)CC(=O)Nc3ccc(F)c(Cl)c3)c[nH]2)CC1`: -3% and 0.27.
The matching figures for `O=C(Cc1ccc2c(c1)OCO2)N1CC2CCC1C2` (centres undefined): -7% and 0.58.
Take `CC(C)COc1cccc(C(=O)N(C)C)c1`: the “% Inhibition” value is -4% and the Z score was 0.64.
For `O=C(NCCn1nnc2ccc(F)cc2c1=O)C1CCOCC1`, the “% Inhibition” value was -4% and the Z score was determined as 0.65.
In the case of `CN(Cc1ccncn1)c1ccc(C(F)(F)F)cn1`, the “% Inhibition” value is given as -12% and the Z score was 1.6.
Take `O=C(NCC1CC1)c1nn(CCOc2ccccc2)c2c1CNCC2`: the “% Inhibition” value was 2% and the Z score is listed as -0.37.
Consider `N#CC1(NC(=O)COC(=O)c2ccc(N3C(=O)c4ccccc4C3=O)cc2)CCCCC1`, for which the “% Inhibition” value came out at 0% and the Z score was -0.04.
The matching figures for `O=C1NCCCCCCN(C(=O)CC2CCCC2)[C@@H]2CCCC[C@H]12`: -6% and 0.79.
The matching figures for `Cc1cnccc1CCNCc1cccc2nonc12`: -11% and 1.73.
The matching figures for `COC[C@@H]1CN(Cc2cnn(C)c2C)C[C@H]1c1nc(C2CC2)no1`: 3% and -0.51.
Regarding `CN(C)CCN(CC1CCCCC1)S(=O)(=O)c1ccc(C#N)s1`, the “% Inhibition” value stood at 3% and the Z score is reported as -0.48.
The matching figures for `O=C(COc1cccc[n+]1[O-])N1CCCc2ccccc21`: -8% and 1.03.
The matching figures for `COC(=O)c1ccc(C)c(OCc2cn3ccccc3c2C#N)c1`: -17% and 2.14.
The matching figures for `C[C@](O)(C(=O)NC1CCN(C(=O)c2cc(Cl)c[nH]2)CC1)c1ccc(Cl)cc1`: 1% and -0.09.
For the compound `COc1ccc2[nH]c3c(c2c1)CCN1C(=O)N(CCc2ccccc2)C(=O)[C@]31C`, the “% Inhibition” value is 2% and the Z score is listed as -0.24.
The matching figures for `Brc1ccc([C@H]2C[C@@H](c3ccccc3)Nc3nnnn32)cc1`: -6% and 0.8.
For `O=C(CN1CCC[C@H]1C1CCC1)NC1CCCCCCC1`, the “% Inhibition” value is on record as -9% and the Z score stood at 1.13.
Regarding `O=C(c1cnccn1)N1C[C@@H](COCC2CC2)[C@H](c2ccncc2)C1`, the “% Inhibition” value is -9% and the Z score is 1.68.
The matching figures for `COc1cccc(CN2CC3(CCN(c4cc(N)ncn4)CC3)CC2=O)c1`: -16% and 1.89.
The matching figures for `Cc1coc(C(=O)Nc2ccc(Cl)c(CN(C)C)c2)c1C`: -11% and 1.48.
Consider `O=C(COCc1nc2ccccc2[nH]1)N1CC[C@H](Cc2cccc(CO)c2)C1`, for which the “% Inhibition” value is -2% and the Z score is given as 0.46.
Turning to `CCOc1ccccc1NC(=O)c1cc(-c2cccc(OC)c2)nc2c1c(C)nn2C`, the “% Inhibition” value is listed as 27% and the Z score is reported as -3.02.
The matching figures for `COc1ccc(OC)c(-c2nnc(NC(=O)COc3ccccc3)o2)c1`: 2% and -0.27.
The matching figures for `COc1ccc(NC(C)=O)cc1NC(=O)CCN1C(=O)c2ccncc2C1=O`: -6% and 0.93.
With `C[C@H]1COc2ccc(C(=O)NC(C)(C)c3nnn[nH]3)cc21`, the “% Inhibition” value is recorded as -1% and the Z score was 0.24.
